In all, about 110,000 compounds went through this assay and about 230 (0.21%) showed an effect of 50% or more. The list shows a part of the results.
Each compound was assayed against DPAP1 (Plasmodium falciparum, UniProt Q8IIJ9) (assay: primary screen, percent inhibition; read by cleavage of a fluorogenic dipeptide substrate; higher = more effect of the substance).
Design: species or system P. falciparum D10 trophozoite lysates; single well
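Also: 30 min substrate incubation versus DMSO and 10 µM JCP410 controls.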

DPAP1, sequence (Q8IIJ9 whole entry, looked up): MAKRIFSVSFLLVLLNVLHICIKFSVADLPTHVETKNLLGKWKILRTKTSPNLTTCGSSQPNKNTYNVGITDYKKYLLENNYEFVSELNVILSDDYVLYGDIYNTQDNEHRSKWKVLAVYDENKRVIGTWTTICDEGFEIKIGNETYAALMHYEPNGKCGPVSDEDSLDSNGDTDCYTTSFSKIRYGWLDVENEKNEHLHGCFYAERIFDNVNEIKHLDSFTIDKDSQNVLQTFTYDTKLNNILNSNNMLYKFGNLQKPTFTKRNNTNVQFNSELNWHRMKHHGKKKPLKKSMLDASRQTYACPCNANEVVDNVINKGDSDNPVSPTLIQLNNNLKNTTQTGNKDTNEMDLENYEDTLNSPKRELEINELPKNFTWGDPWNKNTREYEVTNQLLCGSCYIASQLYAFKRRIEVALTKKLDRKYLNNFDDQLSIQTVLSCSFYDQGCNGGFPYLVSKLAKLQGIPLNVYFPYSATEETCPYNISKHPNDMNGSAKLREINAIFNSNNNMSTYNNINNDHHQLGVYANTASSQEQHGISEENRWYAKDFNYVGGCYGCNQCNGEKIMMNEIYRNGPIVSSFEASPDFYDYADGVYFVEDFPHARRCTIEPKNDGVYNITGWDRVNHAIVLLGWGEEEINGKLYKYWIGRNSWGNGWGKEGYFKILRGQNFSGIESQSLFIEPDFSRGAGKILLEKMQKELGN

Compound | % Inhibition @ 10 uM [%]
COc1ccc(C(=O)Nc2cc(Cl)ccn2)cc1 | -5.6
CCOC(=O)C1(C#N)C2(CCCCC2)C1(C#N)C(=O)OCC (stereo not shown) | 3.16
CCN1CCN(C(=O)C2CC(c3ccc(Cl)cc3)=NO2)CC1 (stereo not shown) | 5.12
Cc1ccc(Sc2ccc(C=C3C(=O)N(C)C(=O)N(C)C3=O)o2)cc1 | -2.26
CC(C)(C)C(=O)CC(O)(c1ccccc1)C(F)(F)F (stereo not shown) | 4.82
CC1=NN(c2ccc(Cl)cc2)C(=O)C1 | -3.79
COc1cc(C)c(CNc2cccc(SC)c2)cc1C | 2.91
CN1CCN(c2cc(N3CCN(CCO)CC3)ccc2[N+](=O)[O-])CC1 | -0.0648
CCCC1Oc2ccccc2C2CC(c3ccc(Cl)cc3)=NN12 (stereo not shown) | 12.2
COc1ccc2nc(N3CCC(C(=O)N4CCC5(CC4)OCCO5)CC3)sc2c1 | -5.51
CCCCN(Cc1ccccc1)C1CCN(Cc2ccccc2)CC1 | 0.472
O=C(CCCNS(=O)(=O)c1cccs1)NCc1ccc(F)cc1 | 2.59
CO/C(O)=C1/C(C)=NC2=C(C(=O)CC(c3ccccc3)C2)C1c1ccncc1 (stereo not shown) | 1.57
O=C1NC2(CCCCC2)C(=O)N1CCS(=O)(=O)Oc1ccc(Cl)cc1 | -2.79
O=C(Nc1ccc(N2CCN(C(=O)c3ccccc3)CC2)c(Cl)c1)c1ccc(Br)o1 | -4.71
CC(=O)N/C(=C\c1ccc(F)cc1)C(=O)OC(C)C | 0.685
CC(=O)c1oc2ccccc2c1NC(=O)CN1CCCCC1 | 0.76
O=C(O)CCCC(=O)N1N=C(c2ccccc2)CC1c1cccs1 (stereo not shown) | 0.343
CCOC(=O)N1CCC(NCc2ccccc2F)CC1 | 3.15
COc1cc(CN2CCN(Cc3ccccc3)CC2)cc(Br)c1O | -5.57
CSc1ncc(C(=O)NC2CCN(Cc3ccccc3)CC2)c(C)n1 | -3.9
O=C1NC(=O)N(c2ccccc2)C(=O)/C1=C\Nc1ccc(C(=O)N2CCCCC2)cc1 | -6.7
CC(C)CC/N=c1/c(-c2ccccc2)c(O)c1=O | -0.539
O=C(NCc1cccs1)c1cc2nc(-c3ccco3)cc(C(F)(F)Cl)n2n1 | -8
CC1=C(C(=O)Nc2ccccn2)C(c2ccc(Cl)cc2)C2=C(O)CC(c3ccccc3)CC2=N1 (stereo not shown) | 4.11

Compound | % Inhibition @ 10 uM [%]
O=C(O)/C=C/C(=O)Nc1cccc(C(=O)O)c1 | -0.128
CC1=C(C(=O)Nc2ccc(Cl)cc2)C(c2ccc3c(c2)OCO3)n2nc(CCCO)nc2N1 (stereo not shown) | 5.44
O=C(NC1(C(F)(F)F)Oc2ccccc2O1)N1CC2CC(C1)c1cccc(=O)n1C2 (stereo not shown) | 1.26
CCC[C@H](NC(=O)C1(NC(=O)c2ccc(Cl)cc2)CCCCC1)C(=O)c1nc2ccccc2o1 | -1.41
COc1ccc(-c2nnc(SCC(=O)Nc3nccs3)n2-c2ccccc2)cc1OC | -10.9
Cc1ccc(-c2nnc(NC(=O)c3ccc(S(=O)(=O)N4CCCCC4)cc3)s2)cc1 | 0.997
N#CC1=C(N)OC2=C(C(=O)CC(c3ccco3)C2)C1c1ccc(OCc2ccc(F)cc2)cc1 (stereo not shown) | -2.83
CCCC(=O)Nc1ccc(C(=O)NCc2ccccc2OC)cc1 | -5.26
CCc1nn(CC(=O)NCC2CCCO2)c(=O)c2cc3sccc3n12 (stereo not shown) | -5.19
CC(C)(C)C(=O)c1cn(CC(=O)N2CCOCC2)c2ccccc12 | -5.41
CCCCN(C)CCCNC(=O)c1ccc2c(c1)sc1nc(-c3ccc(OCC)cc3)cn12 | 6.31
CCn1nc(C)c(C(=O)Nc2ccc(S(=O)(=O)Nc3nc(C)cc(C)n3)cc2)c1C | -6.05
Cc1ccnc(N2C(=O)CSC2c2ccc(Cl)cc2)c1 (stereo not shown) | 0.435
CCOc1ccc(C2C=C(c3ccc(Cl)cc3)Nc3ncnn32)cc1OC (stereo not shown) | 3.32
COC(=O)C1=C(C)N=C(C)/C(=C(/O)OC)C1c1ccc(OC)cc1 (stereo not shown) | -2.6
CCOc1ccc(S(=O)(=O)N2CCN(C/C=C/c3ccccc3)CC2)c2ccccc12 | 2.79
Oc1nc2ccccc2nc1C(F)(F)F | 4.12
c1ccc(N2CCN(Cc3nnc(-c4ccc5c(c4)OCO5)o3)CC2)nc1 | -0.602
COc1ccc(-c2cc(C(F)F)n3ncc(C(=O)NC45CC6CC(CC(C6)C4)C5)c3n2)cc1 | -1.72
Cc1ccc(C2=CC(c3cccs3)n3ncnc3N2)cc1C (stereo not shown) | 1.86
CCOC(=O)c1c(C)n(Cc2ccccc2)c2ccc(OCC(O)Cn3nc(C)cc3C)cc12 (stereo not shown) | 2.56
COc1ccc(-c2nnc3c4ccccc4c(C)nn23)cc1S(=O)(=O)NCc1cccnc1 | 13.3
CCOCCCNC(=O)CCCc1nnc2n3nc(C)nc3c3ccccc3n12 | -1.21
O=C(O)c1ccccc1-c1ccc(/C=C/c2cc(C(F)(F)F)nc(O)n2)o1 | -0.833
CCn1cc(Cl)c(C(=O)Nc2sc(C(C)C)cc2C(N)=O)n1 | -4.28

Compound | % Inhibition @ 10 uM [%]
N#C/C(=C\c1ccncc1)c1nc2ccccc2s1 | 3.95
COc1ccc(C2=NC3(CCN(C(=O)OC(C)(C)C)CC3)NC2=S)cc1 | -1.01
COCCN1C(=O)c2ccccc2C(C(=O)NCc2cccnc2)C1c1c[nH]c2ccccc12 (stereo not shown) | 3.51
N#CCNC(=O)[C@@H]1CCCC[C@@H]1CSc1cc(Cl)cc(Cl)c1 | 1.7
N#CC1=C(N)OC2=C(COC/C2=C/c2cccs2)C1c1cccs1 (stereo not shown) | -2.78
N#CC1=C(N)Oc2[nH]nc(-c3ccccn3)c2C1c1cccs1 (stereo not shown) | 0.983
Cc1c(C(=O)N2CCC(C)CC2)sc2nc(-c3ccc(F)cc3)cn12 | -3.7
O=C(CCCN1C(=O)c2cccc3cccc(c23)C1=O)N1CCN(c2ccc(F)cc2)CC1 | 0.0451
CCOC(=O)NC1(C(F)(F)F)C(=O)N(Cc2ccccc2)C2=C1C(=O)CC(C)(C)C2 (stereo not shown) | 3.54
Cc1ccc(C(=O)NC2CCC(NC(=O)c3ccc(C)o3)CC2)o1 (stereo not shown) | 1.57
O=C1c2cccnc2C(=O)N1Cc1ccc(S(=O)(=O)N2CCCCCC2)cc1 | -0.401
O=C(c1ccccc1)N1CCC(C(=O)N2CCN(Cc3ccccc3)CC2)CC1 | 1.52
O=C(c1c[nH]c2ccccc12)C1NCCS1 (stereo not shown) | 3.31
Cc1ccc2nc(Cl)cc(SCC(=O)NC3CCCCC3)c2c1 | -0.631
COc1ccc(N2CCN(C(=O)C(C)Sc3ccc(Cl)cc3)CC2)cc1 (stereo not shown) | 3.35
CC1CN(C)C(C)C2c3ccccc3NC12 (stereo not shown) | -2.77
CCOc1ccccc1NC(=O)c1ccc(OC)cc1 | -1.29
Cc1c(C2=CCN(S(=O)(=O)c3ccc(Br)cc3)CC2)c2ccccc2n1C | 3.96
COc1ccc(C)cc1-n1nnc(-c2nsc(NC(=O)c3ccc(Cl)cc3)n2)c1C | 0.92
CC1CCCC(C)N1CCCNC(=O)Cn1ncc2c(=O)oc3ccccc3c21 (stereo not shown) | -0.431
COC(=O)CCN1CCN(c2ccccc2Cl)CC1 | -0.582
O=C1OC(c2cccc(Cl)c2Cl)=N/C1=C/c1ccc(F)cc1 | -2.54
COc1ccc(/C=C(/C#N)c2nc3c(s2)CC(C)CC3)cc1 (stereo not shown) | 3.06
O=C1/C(=C/C=C/c2ccccc2)C(=O)N(c2ccc(Br)cc2)C(=S)N1c1ccccc1 | -2.42
CCOc1ccc(S(=O)(=O)Nc2ccc(OCc3ccccc3)cc2)cc1 | 4.05

Compound | % Inhibition @ 10 uM [%]
CCSc1nnc(NC(=O)CSc2nnc(-c3c[nH]c4ccccc34)n2C)s1 | -1.3
CC(C)(C)NC(=O)c1oc2ccccc2c1NC(=O)Cc1cccs1 | -3.65
CC(NCc1cccnc1)C12CC3CC(CC(C3)C1)C2 (stereo not shown) | 3.63
CC(Oc1ccccc1Cl)C(=O)N(Cc1ccco1)C1CCS(=O)(=O)C1 (stereo not shown) | -1.11
c1ccc(N2CCN(Cc3ccco3)CC2)nc1 | -5.57
O=C(c1ccccc1Br)N1CCCCC1CO (stereo not shown) | 1.62
O=C(CC1Sc2ccccc2NC1=O)Nc1ccc(O)cc1 (stereo not shown) | -7.4
O=C(c1cc2c(s1)-c1ccccc1S(=O)(=O)C2)N1CCN(Cc2ccccc2)CC1 | -2.39
Cc1ccc(S(=O)(=O)Nc2sc3c(c2C(N)=O)CCCCCC3)cc1 | 10.6
Cc1ccc2nc(NC(=O)C3CCN(S(=O)(=O)c4cccc5nsnc45)CC3)sc2c1 | -1.76
CCOc1ccc(/C=C/c2nc3ccccc3nc2O)cc1 | 4.94
CCCOc1ccc(NC(=O)CCCN2C(=O)c3ccccc3C2=O)cc1 | -5.9
CCOc1ccc(-n2c(C)nc3cc(C(=O)N4CCC5(CC4)OCCO5)ccc32)cc1 | -2.17
O=C(NCCc1c[nH]c2ccccc12)c1cc2c(Cl)ccc3c2n1CCO3 | 5.06
Cc1ccc(S(=O)(=O)Nc2cc(C)ccn2)cc1 | 1.69
Cc1ccc(S(=O)(=O)NCCCCCC(=O)N2CCCCC2)cc1 | 0.884
CC(C)CCNC(=O)c1cccc(C(=O)NCCC(C)C)c1 | -3.18
CS(=O)(=O)N1CCN(c2ccc([N+](=O)[O-])cc2Cl)CC1 | 0.345
O=C(Cn1ncc2c3ccccc3n(Cc3ccccc3)c2c1=O)NCCCN1CCOCC1 | 0.137
CCOC(=O)c1c(C)[nH]c(C)c1S(=O)(=O)N1CCC(C(=O)N(C)Cc2ccco2)CC1 | 1.05
COc1ccc(C(=O)n2nc(-c3ccco3)nc2N)cc1 | 4.58
N#CC1=C(N)N(c2ccccc2Cl)C2=C(C(=O)CC(c3ccccc3)C2)C1c1cccnc1 (stereo not shown) | -6.62
